Source: PubChem BioAssay AID1347073 (National Center for Advancing Translational Sciences (NCATS), 2019)
Hit rate of the full screen: of about 45,000 compounds, about 200 (0.44%) were called active. Roughly 7% stayed inconclusive and do not appear here. Calls follow the shape of the dose curve; as a rule, active = well fitted activation curve with a large enough effect; inconclusive = small, poorly fitted or top-dose-only effect; inactive = no such curve, though single readings can be large or run the other way. Some of the results follow.

Assay: qHTS of TDP-43 Inhibitors: NCGC Sytravon Library Screen; also: 0% is about no effect; nearly all actives have a fitted effect of over 55% in size
Conditions: yeast TDP-43 toxicity rescue, BacTiter-Glo growth, 24 h; series mostly up to 46.1 µM; growth rescue (activation): at the top concentration
Outline: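 TDP-43-expressing yeast, pregrown in raffinose, seeded at OD600 0.02 in galactose medium with compound for 24 hr at 30 deg C. Growth read by BacTiter-Glo luminescence, so rescue of toxicity appears as activation.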

SMILES	growth rescue (activation)
CC(CCc1ccccc1)N1CCN(Cc2ccccc2)CC1 (centres undefined)	inactive: 7.37%
Cc1ccc(S(=O)(=O)Nc2ccc(N3CCCCC3)cc2)cc1	inactive: -1.27%
COc1ccc(CCN(/C=C2\Sc3ccccc3C2=O)C(C)=O)cc1OC	inactive: 18.4%
O=C(COC(=O)c1ccc(S(=O)(=O)N2CCCC2)cc1)Nc1ccc(F)cc1F	inactive: -4.82%
Nc1cc(Cl)ccc1C(=O)OCC(=O)N1CCCC1	inactive: 9.41%
Cc1sc2nc(SCC(=O)NCc3ccco3)n(C)c(=O)c2c1C	inactive: 23.1%
O=C(COc1ccc(F)cc1)Nc1ccc(Cl)c(-c2nc3ccccc3[nH]2)c1	inactive: -7.33%
CCCCc1ccc(NC(=S)NCCc2ccc(S(N)(=O)=O)cc2)cc1	inactive: 13.7%
O=C(N/N=C/c1cn(-c2ccccc2)nc1-c1cc2ccccc2o1)c1c[nH]c2ccccc12	inactive: 3.1%
Cc1ccc(-c2cc(C(F)F)nc(N3CCOCC3)n2)cc1	inactive: 1.51%
CCOC(=O)NC(=O)/C(C#N)=N\Nc1cccc(Cl)c1	inactive: 20.5%
O=C(NCc1n[nH]c(=S)n1-c1ccc(F)cc1)c1ccc(S(=O)(=O)N2CCCCC2)cc1	inactive: 7.99%
O=C(CSc1nnc(C2CC2)n1-c1ccccc1)N1CCCC1	inactive: -2.32%
Cc1cccc(NC(=O)CCNC(=O)c2ccc(Br)cc2)c1C	inactive: -2.26%
O=C(Cc1ccc(Cl)cc1)Nc1ccc(CN2CCCCC2)cc1	inactive: 14.9%
COc1cccc(NC(=O)N2CCCC2C(=O)NC2CCCC2)c1 (centres undefined)	inactive: -17.7%
COc1cccc(C2=NOC(C(=O)NCc3cccnc3)C2)c1 (centres undefined)	inactive: 10.4%
CCc1cccc(NC(=O)C2CCCN2C(=O)Nc2ccc(C)cc2)c1 (centres undefined)	inactive: 24.5%
CC(=O)c1ccc(NC(=O)C(C)OC(=O)c2ccc(NS(=O)(=O)c3ccc4[nH]c(=O)[nH]c4c3)cc2)cc1 (centres undefined)	inactive: 0.869%
CC(=O)Oc1ccc(CC(C(=O)O)N2C(=O)c3ccccc3C2=O)cc1 (centres undefined)	inactive: 1.69%
O=C(COC(=O)c1ccc(F)cc1)Nc1ccc(Cl)cn1	inactive: 1.45%
CCc1ccc(C(C(=O)NC2CCCC2)N(CCOC)C(=O)CCC(=O)Nc2cc(C)on2)cc1 (centres undefined)	inactive: -19.6%
CCOC(=O)CSc1nc2c(sc(=S)n2-c2ccc(CC)cc2)c(=O)[nH]1	inactive: -3.53%
COc1cc(OC)cc(Oc2ccc(S(=O)(=O)N3CCCCC3)cc2[N+](=O)[O-])c1	inactive: 8.35%
O=C(CN1c2cccc3cccc(c23)S1(=O)=O)Nc1c(F)c(F)c(F)c(F)c1F	inactive: -16.9%
CC(=O)Nc1ccc(C(=O)OCC(=O)NCc2ccc3c(c2)OCO3)cc1	inactive: 17.8%
CCc1cc(OCCCCNCc2ccccc2)ccc1Cl	inactive: -12.9%
CC(=O)N1CCc2cc(Br)cc(S(=O)(=O)NCc3ccc(Cl)cc3)c21	inactive: 16.5%
CCC(CO)NC1=CC(=O)CCC1 (centres undefined)	inactive: -4.26%
